# Test results as given in PubChem BioAssay AID1347165 (National Center for Advancing Translational Sciences (NCATS), 2019).
# In all, about 220,000 compounds went through this assay and about 5,700 (2.6%) were called active. Inconclusive results, whose numbers are uncertain, are shown with a selection of clear calls. Calls follow the shape of the dose curve; as a rule, active = well fitted inhibition curve with a large enough effect; inconclusive = small, poorly fitted or top-dose-only effect; inactive = no such curve, though single readings can be large or run the other way. Potencies of inconclusive entries are doubtful fits and often do not repeat.
# Molecular target: Lysine-specific demethylase 5B (Homo sapiens) (UniProt Q9UGL1)
# Sequence of UniProt Q9UGL1 (Q9UGL1 whole entry, looked up): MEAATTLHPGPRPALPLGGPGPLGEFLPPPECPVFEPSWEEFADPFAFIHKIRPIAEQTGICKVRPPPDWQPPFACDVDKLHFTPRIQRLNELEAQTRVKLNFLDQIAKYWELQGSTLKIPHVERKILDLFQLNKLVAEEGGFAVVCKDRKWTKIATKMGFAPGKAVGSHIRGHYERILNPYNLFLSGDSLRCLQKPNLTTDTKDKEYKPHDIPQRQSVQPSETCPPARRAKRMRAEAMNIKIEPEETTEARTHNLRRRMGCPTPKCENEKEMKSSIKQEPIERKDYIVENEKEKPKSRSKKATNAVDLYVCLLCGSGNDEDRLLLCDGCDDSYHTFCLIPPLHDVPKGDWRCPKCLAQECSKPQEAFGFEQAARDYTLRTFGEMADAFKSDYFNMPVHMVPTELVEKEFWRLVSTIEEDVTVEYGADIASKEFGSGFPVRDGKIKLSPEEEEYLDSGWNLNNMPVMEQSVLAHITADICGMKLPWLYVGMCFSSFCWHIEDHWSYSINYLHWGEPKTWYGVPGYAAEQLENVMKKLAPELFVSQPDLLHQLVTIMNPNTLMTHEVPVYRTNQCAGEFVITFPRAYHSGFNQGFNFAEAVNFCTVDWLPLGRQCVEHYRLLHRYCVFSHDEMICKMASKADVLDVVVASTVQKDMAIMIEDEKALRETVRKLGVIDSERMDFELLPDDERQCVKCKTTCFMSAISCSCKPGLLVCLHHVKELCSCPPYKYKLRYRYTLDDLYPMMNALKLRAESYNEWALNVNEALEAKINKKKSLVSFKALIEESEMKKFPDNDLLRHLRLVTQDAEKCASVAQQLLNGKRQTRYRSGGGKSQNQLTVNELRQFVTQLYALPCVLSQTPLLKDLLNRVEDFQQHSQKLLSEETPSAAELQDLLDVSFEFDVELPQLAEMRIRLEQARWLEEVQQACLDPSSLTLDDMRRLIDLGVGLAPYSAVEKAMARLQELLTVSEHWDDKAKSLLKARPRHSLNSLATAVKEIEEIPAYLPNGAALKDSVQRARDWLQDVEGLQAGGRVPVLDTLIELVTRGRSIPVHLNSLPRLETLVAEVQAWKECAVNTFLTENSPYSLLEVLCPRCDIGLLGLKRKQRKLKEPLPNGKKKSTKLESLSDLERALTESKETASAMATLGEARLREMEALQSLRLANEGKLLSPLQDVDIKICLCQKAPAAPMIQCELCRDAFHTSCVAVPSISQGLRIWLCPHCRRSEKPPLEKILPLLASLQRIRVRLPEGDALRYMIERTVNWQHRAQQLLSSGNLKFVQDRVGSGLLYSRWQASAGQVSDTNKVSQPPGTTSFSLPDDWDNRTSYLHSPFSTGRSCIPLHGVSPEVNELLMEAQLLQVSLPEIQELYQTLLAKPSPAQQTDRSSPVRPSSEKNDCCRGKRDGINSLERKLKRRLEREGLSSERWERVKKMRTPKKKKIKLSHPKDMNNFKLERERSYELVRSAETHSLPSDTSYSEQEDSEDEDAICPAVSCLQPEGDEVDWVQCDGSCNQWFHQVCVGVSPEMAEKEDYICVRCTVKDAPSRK
# Assay: Primary screen for KDM5B Histone Demethylases FDH-coupled qHTS; also: nearly all actives have a fitted effect of over 70% in size; as to activity change, negative = inhibition: 0% is about no effect
# Conditions: FDH-coupled NADH fluorescence (FDH is formaldehyde dehydrogenase); activity change, negative = inhibition: at 57.7 µM (top of the series) unless noted
# Outline: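 Measured: NADH fluorescence change, 30 min, RT. System: KDM5BΔAP 200 nM final, H3K4me3 peptide, α-KG, Fe(II), ascorbate, NAD⁺ plus FDH, pH 7.5 HEPES. Compounds: titrated, 10 min pre-incubation with enzyme.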
# Potency is read from the fitted curve at half-maximal effect; tags tell the direction and shape of the fitted curve.
SMILES,Potency,"activity change, negative = inhibition"
Cc1cc(N2CCC(NC(=O)c3ccc4[nH]ccc4c3)C2=O)ccc1F (centres undefined),"inconclusive: 31.6 µM [inhibitor, partial curve, poor fit]",–
C=CCNC(=S)NNC(=O)c1cccc(C)c1,–,inactive: 11.8%
Cc1cc(Cl)ccc1NC(=O)C(=O)NCc1ccco1,–,inconclusive: -52.7% [inhibitor] [at 11.5 µM]
O=C(COc1ccc(Cl)cc1)Nc1cccc(-c2nnc3n2CCCC3)c1,–,inactive: 26.5%
CCN(CC(=O)Nc1ccccc1OC)C(=O)c1ccc(NC(=O)c2cccs2)cc1,"inconclusive: 39.8 µM [inhibitor, single point]",–
CC(C)(C)c1ccc(/C=N/OCC(=O)Nc2ccc(SC(F)F)cc2)cc1,–,inactive: -0.43%
C#CCNC(=O)c1ccccc1NCC(=O)Nc1ccccc1OC(F)F,"inconclusive: 22.4 µM [inhibitor, partial curve, poor fit]",–
COc1ccc(Cc2nc3nccc(-c4cc(OC)c(OC)c(OC)c4)n3n2)cc1,active: 14.1 µM,–
Cc1cccn2c(=O)c(/C=C(\C#N)c3nc4ccccc4[nH]3)c(Oc3ccc(C(C)(C)C)cc3)nc12,"inconclusive: 15.8 µM [inhibitor, partial curve, poor fit]",–
CN(C)C(=O)Cc1cccc(N)c1,–,inactive: 20.3%
CSc1ccc(-c2ccc3c(c2)C(=O)N2CCN(C(=O)CCC(=O)O)C[C@H]2C(=O)N3)cc1,"inconclusive: 22.4 µM [inhibitor, single point]",–
Cc1cc(CS(=O)(=O)Cc2ccc(Cl)cc2)on1,–,inactive: -8.67%
COc1ccc(N(C(=O)c2cccc(C)c2)S(=O)(=O)c2ccc(Cl)cc2)cc1,"inconclusive: 25.1 µM [inhibitor, partial curve, poor fit]",–
CCN1CCN(C(=O)C2CCCN(C(=O)c3ccccc3)CCC(=O)NCC2)CC1 (centres undefined),–,inactive: 19.4%
O=S(Cc1ccccc1)Cc1cccc(Cl)c1 (centres undefined),–,inactive: 13.4%
CCN1CCC2(CCC1=O)CN(Cc1noc(CC(C)C)n1)CCN2C (centres undefined),–,inactive: 16.5%
Cc1c(C)c2c(OCC(=O)N[C@@H](C)C(=O)O)cc3c(c2oc1=O)CCC(C)(C)O3,"inconclusive: 39.8 µM [inhibitor, single point]",–
COC(=O)c1ccc(C2C3=C(CC(C)(C)CC3=O)Nc3c2c(=O)n(C)c(=O)n3C)cc1 (centres undefined),"inconclusive: 20 µM [inhibitor, partial curve, poor fit]",–
Cc1onc(C(=O)NC2CCN(c3ccc(=O)n(C)n3)CC2)c1CN1CCCC1,"inconclusive: 20 µM [inhibitor, partial curve]",–
Cn1cc(C(=O)N2CCN(C(=O)c3ccccc3)CC2)c2ccccc21,–,inactive: -8.98%
CCc1noc(-c2nc(-c3ccccc3C)no2)n1,–,inactive: 14.7%
Cc1ccc(NC(=O)CN2c3cccc4cccc(c34)S2(=O)=O)c(S(=O)(=O)N2CCCCC2)c1,"inconclusive: 17.8 µM [inhibitor, partial curve, poor fit]",–

SMILES,Potency,"activity change, negative = inhibition"
CC(C)n1cc(CN2CCCCCNC(=O)[C@@H]3CCC[C@@H]32)c2ccccc21,"inconclusive: 15.8 µM [inhibitor, partial curve, poor fit]",–
Fc1ccc(Oc2ccc3nnc(-c4ccccc4)n3n2)cc1,"inconclusive: 25.1 µM [inhibitor, single point]",–
COc1ccc(CNC(=O)Cc2c(C)c3ccc(OC)c(OC)c3oc2=O)cc1,–,inactive: -24.2%
Cc1c(CCC(=O)NCc2ccc3c(c2)OCO3)c(=O)oc2cc(O)ccc12,"inconclusive: 22.4 µM [inhibitor, partial curve, poor fit]",–
CCN1CCN(c2ccc(S(=O)(=O)N(CC)CC)cc2NC(=O)c2ccc(F)cc2)CC1,–,inactive: -12.1%
CCOC(=O)c1cc(S(=O)(=O)N2CCN(c3ccccc3F)CC2)[nH]n1,"inconclusive: 15.8 µM [inhibitor, partial curve, poor fit]",–
Cc1noc(C)c1-c1cc2c(cc(C)n2C)c(NC2CCN(C)CC2)n1,–,inactive: -28.5% [at 86.2 µM]
O=C(Nc1ccc2c(c1)OCCCO2)c1sc(-c2ccco2)nc1-c1ccccc1,"inconclusive: 28.2 µM [inhibitor, single point]",–
S=c1nccc(-c2ccccc2)[nH]1,"inconclusive: 2 µM [inhibitor, full curve, poor fit]",–
COc1cccc(C2C(C(=O)Nc3ccc(C)cc3C)=C(C)Nc3nc4ccccc4n32)c1OC (centres undefined),"inconclusive: 35.5 µM [inhibitor, partial curve, poor fit]",–
CC1(C)C(=O)N(CC(=O)Nc2ccc(Br)cc2F)c2ccccc21,–,inconclusive: -45.2% [inhibitor] [at 11.5 µM]
COc1ccc(-c2cc3nc4c(c(=O)n3[nH]2)CCN(C(=O)COc2ccccc2C)C4)cc1,active: 31.6 µM,–
COc1cc(C2C(C#N)=C(N)OC3=C2C(=O)CC(C)(C)C3)cc(OC)c1OC(=O)N1CCOCC1 (centres undefined),–,inactive: 0.726%
COCC1CN(C(=O)COc2ccccc2)CC12CCNCC2 (centres undefined),"inconclusive: 22.4 µM [inhibitor, single point]",–
O=C(Oc1ccc2cc(-c3ccccc3)c(=O)oc2c1)C1CC1,"inconclusive: 10 µM [inhibitor, partial curve, poor fit]",–
COc1ccc(C)cc1NC(=O)c1cnc(N2CCCCC2)c2ccccc12,"inconclusive: 31.6 µM [inhibitor, partial curve, poor fit]",–
CCOc1ccc(CNS(=O)(=O)c2ccc(-c3coc(C)n3)cc2)cc1,–,inactive: -12.2%
COc1ccc(N2CCN(CCCNC(=O)Cn3c(-c4cccs4)cc4ccccc43)CC2)cc1,"inconclusive: 25.1 µM [inhibitor, partial curve, poor fit]",–
CCCC(=O)Nc1ccc(-c2csc(NC)n2)cc1,–,inactive: -0.547%
CCOc1ccccc1NC(=O)Cc1noc2ccc(C)cc12,"inconclusive: 31.6 µM [inhibitor, single point]",–
Cc1nc(COc2ccc(C(=O)Nc3ccccc3N3CCOCC3)cc2)cs1,–,inactive: 16.8%
COc1cccc(NC(=O)Cn2c(=O)c3c(n2Cc2ccccc2)CN(Cc2ccccc2)CC3)c1,"inconclusive: 31.6 µM [inhibitor, single point]",–
